Test results as given in publication PMC6941957.
Like-named read-outs stand apart in the source and are kept apart here. These are yes or no findings as the source states them, for the method shown. In cells and extracts the contact can be indirect. Some entries that bind do so weakly or less than the wild type. For some assays here: Where a sequence is shown, tags or fusion partners need not be part of it.

The chains behind the UniProt entries cited, without tags or fusion partners.
UniProt O70511: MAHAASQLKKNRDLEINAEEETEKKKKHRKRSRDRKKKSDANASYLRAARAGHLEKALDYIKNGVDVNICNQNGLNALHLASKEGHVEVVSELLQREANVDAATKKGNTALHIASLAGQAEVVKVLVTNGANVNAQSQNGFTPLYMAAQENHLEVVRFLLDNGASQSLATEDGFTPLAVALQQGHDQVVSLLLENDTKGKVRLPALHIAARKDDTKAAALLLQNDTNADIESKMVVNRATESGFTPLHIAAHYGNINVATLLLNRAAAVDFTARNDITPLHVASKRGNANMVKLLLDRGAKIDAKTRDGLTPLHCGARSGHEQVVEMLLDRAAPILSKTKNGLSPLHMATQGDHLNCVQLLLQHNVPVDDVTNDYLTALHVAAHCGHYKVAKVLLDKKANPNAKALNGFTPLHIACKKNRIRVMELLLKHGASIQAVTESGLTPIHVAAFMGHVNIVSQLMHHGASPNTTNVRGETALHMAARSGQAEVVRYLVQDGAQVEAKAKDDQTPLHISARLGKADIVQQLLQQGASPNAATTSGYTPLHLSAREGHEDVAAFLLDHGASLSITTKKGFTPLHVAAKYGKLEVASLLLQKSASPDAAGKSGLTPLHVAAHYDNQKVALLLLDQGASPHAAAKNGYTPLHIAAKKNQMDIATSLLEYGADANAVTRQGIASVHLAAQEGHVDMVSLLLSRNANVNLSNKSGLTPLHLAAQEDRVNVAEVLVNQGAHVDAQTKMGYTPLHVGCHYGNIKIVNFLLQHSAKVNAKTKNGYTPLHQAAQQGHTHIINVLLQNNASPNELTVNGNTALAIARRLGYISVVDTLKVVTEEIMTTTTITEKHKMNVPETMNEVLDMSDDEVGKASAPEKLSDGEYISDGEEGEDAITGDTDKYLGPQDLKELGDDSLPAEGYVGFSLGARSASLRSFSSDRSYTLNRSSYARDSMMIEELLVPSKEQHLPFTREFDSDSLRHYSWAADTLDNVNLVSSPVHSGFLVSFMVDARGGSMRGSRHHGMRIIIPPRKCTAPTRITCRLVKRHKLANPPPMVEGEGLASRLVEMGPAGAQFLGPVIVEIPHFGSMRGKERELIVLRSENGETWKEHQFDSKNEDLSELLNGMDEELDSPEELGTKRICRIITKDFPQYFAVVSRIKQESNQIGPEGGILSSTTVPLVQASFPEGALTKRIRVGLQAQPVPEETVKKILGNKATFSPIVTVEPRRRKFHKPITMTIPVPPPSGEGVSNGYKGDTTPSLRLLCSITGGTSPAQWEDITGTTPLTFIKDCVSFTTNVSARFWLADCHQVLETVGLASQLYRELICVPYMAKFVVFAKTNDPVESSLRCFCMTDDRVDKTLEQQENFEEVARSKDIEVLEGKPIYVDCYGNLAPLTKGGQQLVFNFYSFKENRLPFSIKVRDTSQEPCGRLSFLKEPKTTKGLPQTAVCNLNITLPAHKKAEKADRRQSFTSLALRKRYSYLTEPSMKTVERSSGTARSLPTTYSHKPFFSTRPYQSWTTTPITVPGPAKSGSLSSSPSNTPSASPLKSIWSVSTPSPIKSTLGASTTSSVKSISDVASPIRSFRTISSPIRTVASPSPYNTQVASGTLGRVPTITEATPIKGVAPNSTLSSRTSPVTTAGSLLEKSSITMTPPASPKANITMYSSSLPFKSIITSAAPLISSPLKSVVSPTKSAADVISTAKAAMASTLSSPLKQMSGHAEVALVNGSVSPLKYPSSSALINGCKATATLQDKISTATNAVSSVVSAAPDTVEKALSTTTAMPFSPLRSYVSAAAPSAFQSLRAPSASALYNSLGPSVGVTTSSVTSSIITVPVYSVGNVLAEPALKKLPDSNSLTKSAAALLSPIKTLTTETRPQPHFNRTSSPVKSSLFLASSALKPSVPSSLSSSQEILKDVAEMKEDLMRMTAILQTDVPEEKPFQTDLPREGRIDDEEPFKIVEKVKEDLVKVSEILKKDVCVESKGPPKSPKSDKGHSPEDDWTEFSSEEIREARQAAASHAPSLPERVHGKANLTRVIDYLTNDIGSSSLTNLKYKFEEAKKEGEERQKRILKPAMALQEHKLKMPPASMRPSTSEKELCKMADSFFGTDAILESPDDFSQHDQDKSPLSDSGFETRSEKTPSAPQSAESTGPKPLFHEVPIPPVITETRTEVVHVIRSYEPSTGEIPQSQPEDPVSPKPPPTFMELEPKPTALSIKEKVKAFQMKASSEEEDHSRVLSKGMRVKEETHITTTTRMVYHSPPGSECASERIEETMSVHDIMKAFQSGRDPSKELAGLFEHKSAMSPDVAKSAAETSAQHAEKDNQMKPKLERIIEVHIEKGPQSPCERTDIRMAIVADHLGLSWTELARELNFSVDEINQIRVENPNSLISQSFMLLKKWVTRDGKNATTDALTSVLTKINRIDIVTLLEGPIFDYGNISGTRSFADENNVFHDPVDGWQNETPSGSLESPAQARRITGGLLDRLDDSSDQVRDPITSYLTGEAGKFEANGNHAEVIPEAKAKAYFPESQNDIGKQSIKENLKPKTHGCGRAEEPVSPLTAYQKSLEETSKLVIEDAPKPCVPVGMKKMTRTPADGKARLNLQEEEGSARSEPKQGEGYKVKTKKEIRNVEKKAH
UniProt Q8CJ19: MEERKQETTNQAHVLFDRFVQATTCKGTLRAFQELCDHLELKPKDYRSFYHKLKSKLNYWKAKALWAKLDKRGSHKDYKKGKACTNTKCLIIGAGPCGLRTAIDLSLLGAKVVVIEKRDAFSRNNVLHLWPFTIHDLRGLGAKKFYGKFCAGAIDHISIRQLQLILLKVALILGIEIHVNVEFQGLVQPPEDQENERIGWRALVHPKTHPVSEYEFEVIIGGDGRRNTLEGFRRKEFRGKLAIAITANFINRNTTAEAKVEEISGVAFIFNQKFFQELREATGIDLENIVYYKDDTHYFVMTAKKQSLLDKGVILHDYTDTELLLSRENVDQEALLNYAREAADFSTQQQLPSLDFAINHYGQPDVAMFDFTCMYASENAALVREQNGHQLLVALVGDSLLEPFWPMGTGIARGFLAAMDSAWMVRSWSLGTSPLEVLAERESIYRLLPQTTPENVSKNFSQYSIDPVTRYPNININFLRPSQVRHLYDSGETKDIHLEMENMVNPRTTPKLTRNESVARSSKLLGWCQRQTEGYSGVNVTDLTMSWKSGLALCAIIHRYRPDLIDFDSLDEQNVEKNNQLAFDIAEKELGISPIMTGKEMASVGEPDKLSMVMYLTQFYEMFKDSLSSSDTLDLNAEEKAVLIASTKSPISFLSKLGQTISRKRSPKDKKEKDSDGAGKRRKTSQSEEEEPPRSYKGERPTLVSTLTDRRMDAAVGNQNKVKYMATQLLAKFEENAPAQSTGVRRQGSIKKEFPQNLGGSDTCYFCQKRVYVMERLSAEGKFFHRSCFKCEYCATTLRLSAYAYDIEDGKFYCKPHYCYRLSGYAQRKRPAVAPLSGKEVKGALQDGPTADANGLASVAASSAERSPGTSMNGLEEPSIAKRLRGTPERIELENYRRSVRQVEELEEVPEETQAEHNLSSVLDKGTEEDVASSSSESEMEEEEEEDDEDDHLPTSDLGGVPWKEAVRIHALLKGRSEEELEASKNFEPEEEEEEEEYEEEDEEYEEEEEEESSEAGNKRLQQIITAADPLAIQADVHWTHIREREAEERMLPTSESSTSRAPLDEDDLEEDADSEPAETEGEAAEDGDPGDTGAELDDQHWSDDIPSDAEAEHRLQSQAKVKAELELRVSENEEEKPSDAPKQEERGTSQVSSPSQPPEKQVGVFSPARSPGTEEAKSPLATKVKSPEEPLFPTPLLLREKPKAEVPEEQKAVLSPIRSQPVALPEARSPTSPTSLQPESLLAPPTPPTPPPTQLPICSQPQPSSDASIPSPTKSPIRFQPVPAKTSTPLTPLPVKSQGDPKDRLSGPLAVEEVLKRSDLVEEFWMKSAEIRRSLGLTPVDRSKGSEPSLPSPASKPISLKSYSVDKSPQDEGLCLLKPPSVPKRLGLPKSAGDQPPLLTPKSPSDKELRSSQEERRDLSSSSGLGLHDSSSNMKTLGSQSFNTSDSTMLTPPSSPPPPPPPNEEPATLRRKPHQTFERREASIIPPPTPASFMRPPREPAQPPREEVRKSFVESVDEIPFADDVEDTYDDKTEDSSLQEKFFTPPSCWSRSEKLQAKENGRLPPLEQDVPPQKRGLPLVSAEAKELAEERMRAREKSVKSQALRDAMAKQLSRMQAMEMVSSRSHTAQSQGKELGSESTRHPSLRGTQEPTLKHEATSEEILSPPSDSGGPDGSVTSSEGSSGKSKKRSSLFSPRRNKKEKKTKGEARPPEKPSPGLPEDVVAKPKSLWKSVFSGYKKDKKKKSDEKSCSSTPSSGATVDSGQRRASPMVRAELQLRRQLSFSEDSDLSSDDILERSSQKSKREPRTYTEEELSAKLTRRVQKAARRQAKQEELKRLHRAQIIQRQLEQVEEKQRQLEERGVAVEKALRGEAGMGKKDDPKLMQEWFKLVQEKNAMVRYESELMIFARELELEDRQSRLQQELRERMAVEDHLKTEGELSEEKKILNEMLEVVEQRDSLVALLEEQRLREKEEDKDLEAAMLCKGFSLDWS
UniProt P55258: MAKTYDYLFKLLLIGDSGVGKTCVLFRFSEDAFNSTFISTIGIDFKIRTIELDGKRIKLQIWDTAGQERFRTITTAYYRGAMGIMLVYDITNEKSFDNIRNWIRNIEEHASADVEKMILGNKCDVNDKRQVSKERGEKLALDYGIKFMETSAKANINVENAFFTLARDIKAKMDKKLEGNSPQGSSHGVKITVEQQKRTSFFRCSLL
UniProt P61028: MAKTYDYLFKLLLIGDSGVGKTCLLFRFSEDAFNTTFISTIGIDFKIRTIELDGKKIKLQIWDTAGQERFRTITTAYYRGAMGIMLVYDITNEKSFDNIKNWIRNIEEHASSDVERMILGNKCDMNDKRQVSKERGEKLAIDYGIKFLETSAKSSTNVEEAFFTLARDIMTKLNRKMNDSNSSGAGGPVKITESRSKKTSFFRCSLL
UniProt Q6PHN9: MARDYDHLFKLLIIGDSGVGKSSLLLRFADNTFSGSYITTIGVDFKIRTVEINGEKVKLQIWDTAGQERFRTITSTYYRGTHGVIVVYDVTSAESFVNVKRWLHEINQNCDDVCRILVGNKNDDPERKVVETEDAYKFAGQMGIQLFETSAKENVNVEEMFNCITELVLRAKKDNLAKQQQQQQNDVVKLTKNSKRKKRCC

Tests used:
Sept5-FLAG (mouse) = target: T1, Sept5-FLAG (mouse) (UniProt Q9Z2Q6); assay: co-IP; 'in vitro co-immunoprecipitation': HEK293T cells transfected 48 h, lysed in RIPA or lysis buffer (50 mM Tris-HCl pH 8.0, 150 mM NaCl, 1 mM EDTA, 0.1% Triton X-100), protein G resin with primary antibody, immunoblot
T1 sequence: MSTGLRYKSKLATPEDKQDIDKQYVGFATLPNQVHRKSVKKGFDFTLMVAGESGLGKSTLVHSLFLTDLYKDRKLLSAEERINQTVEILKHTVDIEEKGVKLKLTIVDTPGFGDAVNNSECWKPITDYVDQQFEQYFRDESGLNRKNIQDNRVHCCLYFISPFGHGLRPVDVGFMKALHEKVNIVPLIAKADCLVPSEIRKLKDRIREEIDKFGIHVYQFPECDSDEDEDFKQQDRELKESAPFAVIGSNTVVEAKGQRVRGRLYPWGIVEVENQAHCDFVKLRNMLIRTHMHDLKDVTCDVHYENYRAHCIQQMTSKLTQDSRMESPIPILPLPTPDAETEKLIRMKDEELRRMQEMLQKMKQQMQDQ

Sept6-FLAG (mouse) = target: T2, Sept6-FLAG (mouse) (UniProt Q9R1T4); assay: as above
T2 sequence: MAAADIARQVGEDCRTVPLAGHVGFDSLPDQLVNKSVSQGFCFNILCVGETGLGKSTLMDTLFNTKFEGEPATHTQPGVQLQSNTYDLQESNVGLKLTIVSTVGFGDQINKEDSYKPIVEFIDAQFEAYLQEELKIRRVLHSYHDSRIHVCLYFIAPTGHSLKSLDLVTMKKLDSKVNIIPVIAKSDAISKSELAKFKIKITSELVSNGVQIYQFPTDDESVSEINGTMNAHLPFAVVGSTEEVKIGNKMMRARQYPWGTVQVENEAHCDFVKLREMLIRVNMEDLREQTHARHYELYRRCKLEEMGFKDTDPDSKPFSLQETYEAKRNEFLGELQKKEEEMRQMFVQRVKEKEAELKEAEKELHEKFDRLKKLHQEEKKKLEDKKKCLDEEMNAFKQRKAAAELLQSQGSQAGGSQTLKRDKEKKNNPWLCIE

[1] = target: GST-α2 spectrin (AA 572-1338) (UniProt Q13813); assay: pull-down; HEK293T co-transfected with Mical3-myc and α2 spectrin GST fusion protein, lysis in 150 mM NaCl, 20 mM Tris-HCl pH 8.0, 10 mM EDTA, 1% Triton X-100; glutathione sepharose 4B beads overnight at 4 °C; blots with anti-myc and anti-GST
α2-spectrin-GFP = α2-spectrin-GFP (UniProt Q13813); assay: co-IP; 'in vitro co-immunoprecipitation': HEK293T cells transfected 48 h, lysed in RIPA or lysis buffer (50 mM Tris-HCl pH 8.0, 150 mM NaCl, 1 mM EDTA, 0.1% Triton X-100), protein G resin with primary antibody, immunoblot
[2] = target: T3, NF186 (in vitro co-immunoprecipitation) (rat) (UniProt P97685); assay: as above
T3 sequence: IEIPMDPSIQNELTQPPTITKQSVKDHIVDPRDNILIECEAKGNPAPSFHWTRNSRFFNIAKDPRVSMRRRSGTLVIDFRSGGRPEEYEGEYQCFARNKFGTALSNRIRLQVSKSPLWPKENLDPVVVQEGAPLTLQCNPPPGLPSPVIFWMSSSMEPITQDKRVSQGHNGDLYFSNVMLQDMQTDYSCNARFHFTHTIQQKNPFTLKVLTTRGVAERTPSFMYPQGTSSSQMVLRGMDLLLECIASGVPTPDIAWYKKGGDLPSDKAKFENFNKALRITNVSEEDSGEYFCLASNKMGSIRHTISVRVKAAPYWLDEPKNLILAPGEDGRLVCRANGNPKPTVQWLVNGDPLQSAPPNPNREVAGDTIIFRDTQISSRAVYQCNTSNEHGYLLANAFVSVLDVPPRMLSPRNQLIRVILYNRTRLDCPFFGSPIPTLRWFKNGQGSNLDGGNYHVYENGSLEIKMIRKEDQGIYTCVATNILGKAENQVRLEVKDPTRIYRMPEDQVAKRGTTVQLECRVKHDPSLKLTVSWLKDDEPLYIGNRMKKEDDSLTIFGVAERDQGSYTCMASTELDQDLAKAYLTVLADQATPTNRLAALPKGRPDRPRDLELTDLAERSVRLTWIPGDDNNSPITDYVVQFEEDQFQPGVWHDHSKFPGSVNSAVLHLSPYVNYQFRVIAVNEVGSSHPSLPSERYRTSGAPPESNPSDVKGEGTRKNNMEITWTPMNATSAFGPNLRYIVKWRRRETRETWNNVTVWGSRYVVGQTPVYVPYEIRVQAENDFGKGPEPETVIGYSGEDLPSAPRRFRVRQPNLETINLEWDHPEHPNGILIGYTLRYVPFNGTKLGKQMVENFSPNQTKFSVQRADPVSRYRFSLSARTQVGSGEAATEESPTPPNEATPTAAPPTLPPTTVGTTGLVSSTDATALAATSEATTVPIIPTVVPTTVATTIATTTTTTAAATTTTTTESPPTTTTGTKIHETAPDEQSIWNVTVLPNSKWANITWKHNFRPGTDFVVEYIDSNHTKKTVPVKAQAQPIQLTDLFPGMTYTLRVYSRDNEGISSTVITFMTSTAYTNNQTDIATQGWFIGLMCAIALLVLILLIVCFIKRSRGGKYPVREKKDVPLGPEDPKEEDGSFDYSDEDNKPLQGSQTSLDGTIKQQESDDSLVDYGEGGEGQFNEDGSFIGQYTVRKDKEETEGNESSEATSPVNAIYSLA

AnkG-GFP = AnkG-GFP (UniProt O70511); assay: as above
[3] = target: Mouse Mical3-6xMyc (mouse) (UniProt Q8CJ19); assay: as above
[4] = target: Mical3 (endogenous, mouse brain) (mouse (endogenous in brain)) (UniProt Q8CJ19); assay: co-IP; mouse brain homogenate lysed in RIPA buffer, protein G resin with anti-Mical3, immunoblot
[5] = target: Mouse Mical3-6xMyc (mouse) (UniProt Q8CJ19); assay: co-IP; 'in vitro co-immunoprecipitation': HEK293T cells transfected 48 h, lysed in RIPA or lysis buffer (50 mM Tris-HCl pH 8.0, 150 mM NaCl, 1 mM EDTA, 0.1% Triton X-100), protein G resin with primary antibody, immunoblot; remark: listed apart in the source

Question: For AnkG-GFP (from UniProt O70511 1-2622), which binding (Sept5-FLAG (mouse)) is on record?
Answer: Its binding is “binds”.

Question: What about the binding (Sept6-FLAG (mouse)) of the same molecule?
Answer: The binding was “binds”.

Question: Which results are given for “Mouse Mical3-6xMyc (from UniProt Q8CJ19 1-1993)”?
Answer: binding [1]: binds; binding (α2-spectrin-GFP): binds; binding [2]: no binding; binding (AnkG-GFP): no binding

Question: For Rab8a-tRFP (from UniProt P55258 1-207), which binding [3] is on record?
Answer: Its binding is “binds”.

Question: Which binding [3] does the source give for Rab8b-tRFP (from UniProt P61028 1-207) here?
Answer: The binding was “binds”.

Question: How did the binding [3] turn out when Rab35-tRFP (from UniProt Q6PHN9 1-201) was run?
Answer: The binding was “no binding”.

Question: With “α2 spectrin (endogenous, mouse brain) (from UniProt P16546 1-2472)” as the molecule, how does the binding [4] read?
Answer: Its binding is “binds”.

B1: Rab36-tRFP (protein, UniProt Q8CAM5 1-267)
chain: MRSSWTPLGPPVSQDRIITSFPKWYTPDACLQLKEHFHSRVSTACQHRNTGTAGLRLSKVVVVGDLYVGKTSLIHRLCKNVFDHDYKATIGVDFEIERFEIAGIPYSLQIWDTAGQEKFKCIASAYYRGAQVIITAFDLTDVQTLEHTRQWLEDVLRENEAGSCFIFLVGTKKDLLSGAACEQAEAEAVHLANEMQAEYWSVSAKTGENVKAFFSRVAALAFEQSVLQDLEKRPSTQSQVGDGDGDLIRIEVPKTQENKRPPGLGCC
Question: B1 was tested. Which binding [5] did it give?
Answer: The binding was “binds”.
